The values below come from the supplement of paper PMC3334620.

In all, about 33,000 sequences were measured (“E-score (-0.5 to 0.5)”: median about -0.017, highest 2% from about 0.3 on). The list shows a part of the results.

The target of this assay is T1, Sut1 (UniProt P53032).
T1 sequence: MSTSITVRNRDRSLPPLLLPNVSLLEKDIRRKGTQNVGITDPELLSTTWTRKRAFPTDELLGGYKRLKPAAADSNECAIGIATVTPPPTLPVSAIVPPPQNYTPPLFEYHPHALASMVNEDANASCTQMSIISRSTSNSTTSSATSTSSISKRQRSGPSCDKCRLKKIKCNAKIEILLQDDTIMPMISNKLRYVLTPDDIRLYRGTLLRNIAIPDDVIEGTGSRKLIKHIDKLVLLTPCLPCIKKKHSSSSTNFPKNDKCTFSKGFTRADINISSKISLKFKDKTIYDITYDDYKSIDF
Briefly: PBM E-score (8-mer binding enrichment) (E-score (-0.5 to 0.5)); higher = stronger / more preferred TF binding; most listed sequences are background and not binding sites. As to conditions: protein concentration: 200 nM; construct: GST-full length. The method in brief:
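GST-tagged yeast TFs (full-length or DNA-binding domain) were made by PURExpress in vitro transcription/translation and applied at about 100-200 nM to universal all-10-mer Agilent arrays. The arrays were made double-stranded by primer extension, on fresh or once-stripped slides. Bound protein was detected with fluorescent anti-GST, and scans were normalised with masliner. Each ungapped eight-base word, pooled with its reverse complement, received an E-score (modified Wilcoxon-Mann-Whitney statistic) from the Universal PBM Analysis Suite.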
For CCGTCGCA, the “PBM E-score” value was -0.0269. CAATACGG: the “PBM E-score” value is -0.0587. With ACGCGACT, the “PBM E-score” value was -0.145.

Take ACGAGGAA: the “PBM E-score” value is -0.0284. With GCGTGGTA, the “PBM E-score” value is -0.102. For GAATAAAC, the “PBM E-score” value was 0.17.

For ATGCCAAT, the “PBM E-score” value was -0.105. On to AGCGTCCC, for which the “PBM E-score” value is -0.168. As to ATCACCTC, the “PBM E-score” value was 0.00627. In the case of GTAGGGGA, the “PBM E-score” value is -0.174. In the case of CATCTTAG, the “PBM E-score” value is 0.0151. On to GTTTACCA, for which the “PBM E-score” value turned out to be 0.135. Regarding ATCGATAG, the “PBM E-score” value was -0.00817.

Turning to AAGCAGAG, the “PBM E-score” value was -0.037. In the case of ACTCCTGC it was 0.0597; in that of GCACTTTA, 0.013. With ACGCGACA, the “PBM E-score” value was 0.0269. The value for GCAGACCA was -0.105; that for ATCTCGGG was 0.0127; that for GCAGAGAA was -0.00121. As for GCCGGTCC, the “PBM E-score” value was -0.181. Regarding CGGCTCAC, the “PBM E-score” value was -0.00015. For the sequence AATGGAAA, the “PBM E-score” value was -0.0179. Take CGCGAGCC: the “PBM E-score” value was -0.106.

For CCGGGGAA, the “PBM E-score” value was determined as 0.0838. On to AAGGGCAT, for which the “PBM E-score” value is -0.308. Consider GTCTCAAC, for which the “PBM E-score” value was found to be 0.0183. In the case of AATCACAA it was -0.0123; in that of AGTCCGAT, 0.486; in that of GATTATAA, 0.154.

On to ACTGGTCA, for which the “PBM E-score” value is -0.013. In the case of ATTGAGAG, the “PBM E-score” value came to 0.0325. As for AGCGGTAC, the “PBM E-score” value was -0.189. For AAAGGATA, the “PBM E-score” value is 0.224.

For GCCCAACA, the “PBM E-score” value was -0.216. AATTAGTC: the “PBM E-score” value was 0.155.

Take AATCCCCT: the “PBM E-score” value is -0.219. Take CAGTACAG: the “PBM E-score” value was -0.0275. In the case of CAGGCTTC it was -0.0159. Consider CAGTGCGA, for which the “PBM E-score” value was -0.18. In the case of CCGAAGCC, the “PBM E-score” value turned out to be 0.0551. For AGCTGATG, the “PBM E-score” value was -0.0349. As for CCGGACTC, the “PBM E-score” value amounted to 0.476. With CAGTAGGG, the “PBM E-score” value is -0.292. Take AGTGTGAC: the “PBM E-score” value is -0.165.

Take ACGTCCCC: the “PBM E-score” value is -0.214. Take ATAGTCGG: the “PBM E-score” value is 0.0106.

As to GGCGCGGA, the “PBM E-score” value came to 0.0941. As for AGGGTACG, the “PBM E-score” value is -0.186. ATCCTAGA: the “PBM E-score” value is -0.0865. Regarding ACAGTAGA, the “PBM E-score” value is 0.0255. Regarding ACAAATAC, the “PBM E-score” value stood at 0.205.

For the sequence CGTCTCCA, the “PBM E-score” value is -0.0128. As to ATCGGGAC, the “PBM E-score” value is -0.121. For the sequence ATCCCGTA, the “PBM E-score” value is -0.0312.

Turning to AGGAGCTA, the “PBM E-score” value is -0.155. With AGTCCAGA, the “PBM E-score” value worked out at 0.0785. The value for CGGAGATA was 0.458.

Take AAGGGATC: the “PBM E-score” value was 0.0681. For the sequence CAGCACCG, the “PBM E-score” value is -0.0462. In the case of CCGAGTAA it was 0.18; in that of CTGAAGAC, -0.0142. As to GACTGCAC, the “PBM E-score” value is -0.0253. The value for ACGACTTA was -0.156; that for GGTCACAC was -0.311; that for TAGGGTGA was 0.0189. Take TCCTCTAA: the “PBM E-score” value was -0.119. For the sequence TAACCCGA, the “PBM E-score” value is -0.0473. As to TACTACGA, the “PBM E-score” value was found to be 0.00078. Turning to CCAGACAA, the “PBM E-score” value is -0.108. As for CTACCCTA, the “PBM E-score” value was -0.152. On to GGCTCGTA, for which the “PBM E-score” value is -0.15.

On to ACGGCCTC, for which the “PBM E-score” value was -0.29. As for ACTTGCTG, the “PBM E-score” value was -0.163.

For GGCATGCA, the “PBM E-score” value is 0.0182. Consider CTCATTAC, for which the “PBM E-score” value came out at 0.0834. In the case of TCCGCCAA, the “PBM E-score” value is 0.112. For GTTTACAA, the “PBM E-score” value amounted to 0.237. For ATGGACCC, the “PBM E-score” value is -0.0796.

For the sequence ATTATACG, the “PBM E-score” value was 0.167. In the case of AACCCTAC, the “PBM E-score” value is -0.287.

Consider AGGAGCAC, for which the “PBM E-score” value worked out at 0.0107.

Consider AGGCCAAG, for which the “PBM E-score” value is -0.183. Take CATGTGTA: the “PBM E-score” value came to 0.0397. In the case of CGAATGCA it was 0.0106; in that of AACAGGGA, -0.00339.
